Most values come without repeats; read them as rough.
How the values were obtained:
CHO-K1 [1] = experiment: hypodiploid nuclei frequency (% of nucleated events); higher = more hypodiploid events (aneugenic)
Protocol: (§1)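 Flow-cytometric in vitro micronucleus assay (Litron MicroFlow) in CHO-K1 cells in 96-well plates, 19 concentrations (4.5-200 µM, n=1 per concentration). Without S9, cells were exposed for 24 h and sampled at 48 h. With Aroclor 1254-induced rat liver S9, cells were exposed for 3-4 h and sampled at 27-28 h. Read-outs are %MN and %hypodiploid nuclei relative to nucleated events, and relative survival as the nuclei-to-bead ratio versus the 1% DMSO vehicle control (x100).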

CHO-K1 [2] = experiment: micronucleus frequency (% of nucleated events); higher = more micronuclei (genotoxic)
CHO-K1 [3] = experiment: relative survival (nuclei to bead ratio vs DMSO control) (% of vehicle control); higher = more surviving cells
Protocol: as §1
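Throughout, for hypodiploid nuclei frequency (% of nucleated events): hypodiploid nuclei gated on a flow cytometer with 488 nm excitation after SYTOX Green staining, cultures at 37 °C, positive controls vinblastine without S9 and cyclophosphamide with S9.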
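Throughout, for micronucleus frequency (% of nucleated events): cells lysed with nuclei stained by SYTOX Green, then micronucleus-gated events counted against nucleated events by flow cytometry with 488 nm excitation.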
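Throughout, for relative survival (nuclei to bead ratio vs DMSO control): Lysed-cell nuclei stained with SYTOX Green and counted against counting beads by flow cytometry at 488 nm excitation, with vinblastine (no S9) and cyclophosphamide (plus S9) as positive controls.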

c1ccc2c(c1)Nc1ccccc1S2 [Phenothiazine]
Settings	hypodiploid nuclei frequency, CHO-K1 [1] [%]	micronucleus frequency, CHO-K1 [2] [%]	relative survival, CHO-K1 [3]
concentration: 4.5 (µM), S9 metabolic activation: with S9, exposure time: 3-4 hours	0.3	1.58	77.3
concentration: 4.5 (µM), S9 metabolic activation: without S9, exposure time: 24 hours	0.86	1.02	103
concentration: 5.63 (µM), S9 metabolic activation: with S9, exposure time: 3-4 hours	0.16	0.9	94.1
concentration: 5.63 (µM), S9 metabolic activation: without S9, exposure time: 24 hours	2.18	0.84	96.3
concentration: 7.04 (µM), S9 metabolic activation: with S9, exposure time: 3-4 hours	0.18	0.64	120
concentration: 7.04 (µM), S9 metabolic activation: without S9, exposure time: 24 hours	12.7	1.16	84.4
concentration: 8.8 (µM), S9 metabolic activation: with S9, exposure time: 3-4 hours	0.28	1.44	60.5
concentration: 8.8 (µM), S9 metabolic activation: without S9, exposure time: 24 hours	50.2	2.24	52.7
concentration: 11 (µM), S9 metabolic activation: with S9, exposure time: 3-4 hours	0.04	1.14	90
concentration: 11 (µM), S9 metabolic activation: without S9, exposure time: 24 hours	3.4	0.94	84.7
concentration: 13.7 (µM), S9 metabolic activation: with S9, exposure time: 3-4 hours	0.26	0.9	102
concentration: 13.7 (µM), S9 metabolic activation: without S9, exposure time: 24 hours	1.76	1.12	98.1
concentration: 17.2 (µM), S9 metabolic activation: with S9, exposure time: 3-4 hours	0.14	1.76	84
concentration: 17.2 (µM), S9 metabolic activation: without S9, exposure time: 24 hours	5.5	1.86	73.1
concentration: 21.5 (µM), S9 metabolic activation: with S9, exposure time: 3-4 hours	0.16	1.7	81.4
concentration: 21.5 (µM), S9 metabolic activation: without S9, exposure time: 24 hours	4	1.98	96
concentration: 26.8 (µM), S9 metabolic activation: with S9, exposure time: 3-4 hours	0.28	2.82	60
concentration: 26.8 (µM), S9 metabolic activation: without S9, exposure time: 24 hours	0.78	1.04	90.4
concentration: 33.6 (µM), S9 metabolic activation: with S9, exposure time: 3-4 hours	0.56	4.12	63.3
concentration: 33.6 (µM), S9 metabolic activation: without S9, exposure time: 24 hours	1.06	1	72.5
concentration: 41.9 (µM), S9 metabolic activation: with S9, exposure time: 3-4 hours	0.87	5.66	43
concentration: 41.9 (µM), S9 metabolic activation: without S9, exposure time: 24 hours	1.76	0.92	75.8
concentration: 52.4 (µM), S9 metabolic activation: with S9, exposure time: 3-4 hours	–	–	38.3
concentration: 52.4 (µM), S9 metabolic activation: without S9, exposure time: 24 hours	5.53	1.34	70.5
concentration: 65.5 (µM), S9 metabolic activation: with S9, exposure time: 3-4 hours	–	–	37
concentration: 65.5 (µM), S9 metabolic activation: without S9, exposure time: 24 hours	24.9	1.47	46.8
concentration: 81.9 (µM), S9 metabolic activation: with S9, exposure time: 3-4 hours	–	–	36.3
concentration: 81.9 (µM), S9 metabolic activation: without S9, exposure time: 24 hours	–	–	28
concentration: 102 (µM), S9 metabolic activation: with S9, exposure time: 3-4 hours	–	–	31.6
concentration: 102 (µM), S9 metabolic activation: without S9, exposure time: 24 hours	–	–	19.5
concentration: 128 (µM), S9 metabolic activation: with S9, exposure time: 3-4 hours	–	–	39.8
concentration: 128 (µM), S9 metabolic activation: without S9, exposure time: 24 hours	–	–	18.2
concentration: 160 (µM), S9 metabolic activation: with S9, exposure time: 3-4 hours	–	–	37.9
concentration: 160 (µM), S9 metabolic activation: without S9, exposure time: 24 hours	–	–	20.6
concentration: 200 (µM), S9 metabolic activation: with S9, exposure time: 3-4 hours	1.36	6.95	58
concentration: 200 (µM), S9 metabolic activation: without S9, exposure time: 24 hours	–	–	18.4

C[C@]12CC[C@@H]3c4ccc(O)cc4C[C@@H](CCCCCCCCC[S+]([O-])CCCC(F)(F)C(F)(F)F)[C@H]3[C@@H]1CC[C@@H]2O (some centres undefined) [Fulvestrant]
Settings	hypodiploid nuclei frequency, CHO-K1 [1] [%]	micronucleus frequency, CHO-K1 [2] [%]	relative survival, CHO-K1 [3]
concentration: 2.79 (µM), S9 metabolic activation: with S9, exposure time: 3-4 hours	0.18	1.42	102
concentration: 2.79 (µM), S9 metabolic activation: without S9, exposure time: 24 hours	0.2	1.42	119
concentration: 3.49 (µM), S9 metabolic activation: with S9, exposure time: 3-4 hours	0.34	1.46	110
concentration: 3.49 (µM), S9 metabolic activation: without S9, exposure time: 24 hours	0.76	2.02	101
concentration: 4.36 (µM), S9 metabolic activation: with S9, exposure time: 3-4 hours	0.38	1.42	106
concentration: 4.36 (µM), S9 metabolic activation: without S9, exposure time: 24 hours	0.48	1.32	105
concentration: 5.45 (µM), S9 metabolic activation: with S9, exposure time: 3-4 hours	0.18	1.44	90.7
concentration: 5.45 (µM), S9 metabolic activation: without S9, exposure time: 24 hours	0.42	2.02	91.9
concentration: 6.8 (µM), S9 metabolic activation: with S9, exposure time: 3-4 hours	0.26	1.7	106
concentration: 6.8 (µM), S9 metabolic activation: without S9, exposure time: 24 hours	0.4	1.4	103
concentration: 8.5 (µM), S9 metabolic activation: with S9, exposure time: 3-4 hours	0.22	2	115
concentration: 8.5 (µM), S9 metabolic activation: without S9, exposure time: 24 hours	0.6	2.76	120
concentration: 10.7 (µM), S9 metabolic activation: with S9, exposure time: 3-4 hours	0.32	2.22	98.6
concentration: 10.7 (µM), S9 metabolic activation: without S9, exposure time: 24 hours	0.54	2.34	102
concentration: 13.3 (µM), S9 metabolic activation: with S9, exposure time: 3-4 hours	0.34	1.94	103
concentration: 13.3 (µM), S9 metabolic activation: without S9, exposure time: 24 hours	0.46	2.8	107
concentration: 16.6 (µM), S9 metabolic activation: with S9, exposure time: 3-4 hours	0.26	1.7	126
concentration: 16.6 (µM), S9 metabolic activation: without S9, exposure time: 24 hours	0.5	2.54	93.6
concentration: 20.8 (µM), S9 metabolic activation: with S9, exposure time: 3-4 hours	0.22	1.76	112
concentration: 20.8 (µM), S9 metabolic activation: without S9, exposure time: 24 hours	0.58	2.48	87.7
concentration: 26 (µM), S9 metabolic activation: with S9, exposure time: 3-4 hours	0.32	2.48	100
concentration: 26 (µM), S9 metabolic activation: without S9, exposure time: 24 hours	0.42	2.02	97
concentration: 32.5 (µM), S9 metabolic activation: with S9, exposure time: 3-4 hours	0.28	2	104
concentration: 32.5 (µM), S9 metabolic activation: without S9, exposure time: 24 hours	0.66	2.54	123
concentration: 40.6 (µM), S9 metabolic activation: with S9, exposure time: 3-4 hours	0.48	2.5	109
concentration: 40.6 (µM), S9 metabolic activation: without S9, exposure time: 24 hours	0.42	2.14	89.2
concentration: 50.8 (µM), S9 metabolic activation: with S9, exposure time: 3-4 hours	0.2	1.5	106
concentration: 50.8 (µM), S9 metabolic activation: without S9, exposure time: 24 hours	0.58	1.74	86.2
concentration: 63 (µM), S9 metabolic activation: with S9, exposure time: 3-4 hours	0.3	1.84	132
concentration: 63 (µM), S9 metabolic activation: without S9, exposure time: 24 hours	0.74	1.68	95.3
concentration: 79 (µM), S9 metabolic activation: with S9, exposure time: 3-4 hours	0.26	2.36	118
concentration: 79 (µM), S9 metabolic activation: without S9, exposure time: 24 hours	0.74	2.28	99.3
concentration: 99 (µM), S9 metabolic activation: with S9, exposure time: 3-4 hours	0.16	1.72	156
concentration: 99 (µM), S9 metabolic activation: without S9, exposure time: 24 hours	0.78	2.48	91.1
concentration: 124 (µM), S9 metabolic activation: with S9, exposure time: 3-4 hours	0.42	1.78	121
concentration: 124 (µM), S9 metabolic activation: without S9, exposure time: 24 hours	0.84	3.04	78.2

Source: the supplement of paper PMC9151546
